The source gives no read counts; variants with many changes may rest on few reads.
B1: CPEB3 Ribozyme (parent)
chain: UAACAGGGGGCCACAGCAGAAGCGUUCACGUCGCAGCCCCUGUCAGAUUCUGGUGAAUCUGCGAAUUCUGCUGUAUAUCUC

Variants of: B1
Experiment: self-cleavage, relative activity (ratio to wild type); higher = more cleavage; in vitro, sequencing
Outline: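 Relative activity compares each variant's cleaved/total read fraction with that of the unmutated ribozyme. To get these fractions, barcoded CPEB3 ribozyme libraries from rounds of error-prone PCR were transcribed with T7 RNA polymerase for 5 hours at 37°C and then given 15 min of DNase I treatment before EDTA was added. The RNAs were reverse transcribed with template switching and sequenced on Illumina, and DNA sequencing linked barcodes to variants. A minimum of 5 reads applied, and three batches were averaged.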

**Q.** With UAACAGUGGGCCACAGCAGGAGCGUUCACGUCGCAGCCCCUGCCAGAUUCUCGUGAAUCUGCGAAUUCUGCUGUAUACCUC [G7U A20G U43C G52C U78C] as the variant, how does the self-cleavage read?
**A.** The self-cleavage was 0.17.

**Q.** For UAACAGUGGGCCACAGCAGUAGCGUUCACGUCGCAGCCCAUGUCAGAUUCUGGUGAAUCUGCGAAUUCUGCUGUAUAUCUC [G7U A20U C40A], which self-cleavage is on record?
**A.** The self-cleavage was 0.06.

**Q.** For UAACAGUGGGCCACAGCAGUAGCGUUCACGCCGCAGCCCCUGUCAGAUUCUGGUGAAUCUGCGAAUUCUGCUGUAUAUCUC [G7U A20U U31C], which self-cleavage is on record?
**A.** The self-cleavage was 0.18.

**Q.** With UAACAGUGGGCCACAGCAGACGCGUUCACGUCGCAGCCCCUGUCAGAUUCUGGUGAAUCUGCGAAUUCUGCUGUAUACCUC [G7U A21C U78C] as the variant, how does the self-cleavage read?
**A.** Its self-cleavage is 0.15.

**Q.** Which self-cleavage does the source give for UAACAGUGGGCCACAGCAGAGGCGUUCACGUCACAGCCCCUGUCAGAUUCUGGUGAAUCUGCGAAUUCUGCCGUAUAUCUC [G7U A21G G33A U72C] here?
**A.** The self-cleavage was 0.22.

**Q.** With UAACAGUGGGCCACAGCAGAGGCGUUCACGUCGCAGCCCCUGUCAGAUUCUGGUUAAUCUGCGAAUCCUGCCGUAUAUCAC [G7U A21G G55U U67C U72C U80A] as the variant, how does the self-cleavage read?
**A.** The self-cleavage was 0.04.

**Q.** For UAACAGUGGGCCACAGCAGAGGCGUUCACGUCGCAGCCCCCGUCAGAUUCUGGUGGAUCUGCGGAUUCUGCUGUAUGUCCC [G7U A21G U41C A56G A64G A77G U80C], which self-cleavage is on record?
**A.** The self-cleavage was 0.05.

**Q.** With UAACAGUGGGCCACAGCAGAGGCGUUCACGUCGCAGCCCCCGUCAGAUUCUGGCGGAUCUGCGAAUUCUGCUGUAUAUCCC [G7U A21G U41C U54C A56G U80C] as the variant, how does the self-cleavage read?
**A.** Its self-cleavage is 0.12.

**Q.** Which self-cleavage does the source give for UAACAGUGGGCCACAGCAGAAGCGUUCGCGUCGCAGCCCCUGUCGGAUUCUGGCGAAUCUGCGAAUUCUGCUGUAUAUCAC [G7U A28G A45G U54C U80A] here?
**A.** The self-cleavage was 0.2.

**Q.** Which self-cleavage does the source give for UAACAGUGGGCCACAGCAGAAGCGUUCUCGUCGCAGCCCCUGUCAGAUUCUGGUGUAUCUGUGAAUUCUGCUGUAUUUCUC [G7U A28U A56U C62U A77U] here?
**A.** Its self-cleavage is 0.09.

**Q.** With UAACAGUGGGCCACAGCAGAAGCGUUCUCGCCGCAGCCCCUGUCAGAUUCUGGUGAGUCUGCGAAUUCUGCUGUAUAUCGC [G7U A28U U31C A57G U80G] as the variant, how does the self-cleavage read?
**A.** The self-cleavage was 0.09.

**Q.** For UAACAGUGGGCCACAGCAGAAGCGUUCACGUCGCGGCCCCUGUCAGAUUCUGGAGAAUCUGCGAAUUCUGCUGCGUAUCUC [G7U A35G U54A U74C A75G], which self-cleavage is on record?
**A.** Its self-cleavage is 0.12.

**Q.** For UAACAGUGGGCCACAGCAGAAGCGUUCACGUCGCUGCUCCUGUCAGAUUCUGGUGAAUCUGCGAACUCUGCUGUAUAUCUC [G7U A35U C38U U66C], which self-cleavage is on record?
**A.** The self-cleavage was 0.06.

**Q.** For UAACAGUGGGCCACAGCAGAAGCGUUCACGUCGCUGCCCCUGUCAGAUUCUGGUGAACCUGCGAAUUCUGCUGUAUAUCUC [G7U A35U U58C], which self-cleavage is on record?
**A.** Its self-cleavage is 0.12.

**Q.** With UAACAGUGGGCCACAGCAGAAGCGUUCACGUCGCUGCCCCUGUCAGAUUCUGGUGAAUCUGCGAAUCCUGCUGUAUAUCUC [G7U A35U U67C] as the variant, how does the self-cleavage read?
**A.** The self-cleavage was 0.35.

**Q.** Which self-cleavage does the source give for UAACAGUGGGCCACAGCAGAAGCGUUCACGUCGCAGCCCCUGUCGGAUUCUGGUGAAUCUGCGUAUCCCGCUGUAUAUCUC [G7U A45G A64U U67C U69C] here?
**A.** Its self-cleavage is 0.37.

**Q.** Which self-cleavage does the source give for UAACAGUGGGCCACAGCAGAAGCGUUCACGUCGCAGCCCCUGUCAGAUUCUGGUGGGUCUGCGAAUUCCGCUGUAUACCUC [G7U A56G A57G U69C U78C] here?
**A.** Its self-cleavage is 0.09.

**Q.** With UAACAGUGGGCCACAGCAGAAGCGUUCACGUCGCAGCCCCUGUCAGAUUCUGGUGGAUCUGCGACUUCUGCUGUAUACCUC [G7U A56G A65C U78C] as the variant, how does the self-cleavage read?
**A.** The self-cleavage was 0.07.

**Q.** Which self-cleavage does the source give for UAACAGUGGGUCACAGCAGAAGCGUUCACGUCGCAGCCCCCGUCAGAUUCUAGUGAAUCUGCGAAUUCUGCCGUAUAUCGC [G7U C11U U41C G52A U72C U80G] here?
**A.** The self-cleavage was 0.09.

**Q.** With UAACAGUGGGCCAAAGCAGAAGCGUUCACGUCGCUGCCCCUGUCAGAUUCUGGUGAAUCUGCGGAUUCUGCUGUAUAUCUC [G7U C14A A35U A64G] as the variant, how does the self-cleavage read?
**A.** The self-cleavage was 0.15.

**Q.** Which self-cleavage does the source give for UAACAGUGGGCCACAGAAGAAGCGAUCUCGUCGCAGCCCCUGUCAGAUUCUGGUGAAUCUGCGAUUUCUGCUGUAUAUUUC [G7U C17A U25A A28U A65U C79U] here?
**A.** Its self-cleavage is 0.03.

**Q.** For UAACAGUGGGCCACAGCAGAAGAGUUCACGUCGCUGCCCCUGUCAGAUUCUGGUGAAUCUGCGAAUUCUGCUGUAUAUCCC [G7U C23A A35U U80C], which self-cleavage is on record?
**A.** The self-cleavage was 0.05.

**Q.** Which self-cleavage does the source give for UAACAGUGGGCCACAGCAGAAGUGUUCACGUCGCAGCCCCUGUCAGUUUCUAGUGAAUCUGCGAAUUCUGCAGUAUAUCUC [G7U C23U A47U G52A U72A] here?
**A.** The self-cleavage was 0.16.

**Q.** Which self-cleavage does the source give for UAACAGUGGGCCACAGCAGAAGCGUUCACGUCGCAGCCACUGUCAGAUUCUGGUGAAUCUGAGAAUUCUGCUGUAUAUCAC [G7U C39A C62A U80A] here?
**A.** Its self-cleavage is 0.04.

**Q.** With UAACAGUGGGCCACAGCAGAAGCGUUCACGUCGCAGCCCCUGUUAGAUUCCGGUGAAUCUGCGAAUUCUGCUGUAUAUCUC [G7U C44U U51C] as the variant, how does the self-cleavage read?
**A.** The self-cleavage was 0.16.

**Q.** For UAACAGUGGGCCACAGCAGAAGCGUUCACGUCGCAGCCCCUGUUAGAUUCUGGUGAAACUGCGAAUUCUGCUGUAUAUCUC [G7U C44U U58A], which self-cleavage is on record?
**A.** Its self-cleavage is 0.08.

**Q.** For UAACAGUAGGCCACAGCAGAAGCGAUCACGUCGCAGCCCCUGUCAGAUUCUGGUGUAUCUGCGAAUUCUGCUGUAUAUCUC [G7U G8A U25A A56U], which self-cleavage is on record?
**A.** Its self-cleavage is 0.07.

**Q.** For UAACAGUGGGCCACAGCACAAGCGUUCACGUCGCAGCCCCUGUCAGAUCCUGGUGAAUCUGCGAGUUCUGCCGUAUAUCUC [G7U G19C U49C A65G U72C], which self-cleavage is on record?
**A.** The self-cleavage was 0.2.

**Q.** For UAACAGUGGGCCACAGCAGAACCGUACACGUCGCAGCCCCAGUCAGAUUCUGGUGAAUCUGCGAAUUCUGCUGUAUAUCUC [G7U G22C U26A U41A], which self-cleavage is on record?
**A.** The self-cleavage was 0.06.

**Q.** Which self-cleavage does the source give for UAACAGUGGGCCACAGCAGAAGCUUUCACGUCGCAGCCCCUGUCAGAUUCUGGUGAAUCUGCGAAUUCCGCUGUAUUUCUC [G7U G24U U69C A77U] here?
**A.** Its self-cleavage is 0.11.

**Q.** With UAACAGUGGGCCACAGCAGAAGCGUUCACCUCGCAGCCCCUGUCAGGUUAUGGUGAAUCUGCGAAUUCUGCUGUAUAUCUC [G7U G30C A47G C50A] as the variant, how does the self-cleavage read?
**A.** Its self-cleavage is 0.07.

**Q.** Which self-cleavage does the source give for UAACAGUGGGCCACAGCAGAAGCGCUCACGUCGCAGCCCCUGACAGAUUCAGGUGAAUCUGCGAAUUCUGCUGUAUAUCUC [G7U U25C U43A U51A] here?
**A.** Its self-cleavage is 0.11.

**Q.** With UAACAGUGGGCCACAGCAGAAGCGUUCACGACGCAGCCCCUGUCAGUUUCUGGUGAAUCUGCGAAUUCUGCUGUAUAUCUC [G7U U31A A47U] as the variant, how does the self-cleavage read?
**A.** Its self-cleavage is 0.06.

**Q.** Which self-cleavage does the source give for UAACAGUGGGCCACAGCAGAAGCGUUCACGACGCAGCCCCUGUCAGAUUCUGGUGGAUCUGCGAAUUCUGCCGUAUAUCUC [G7U U31A A56G U72C] here?
**A.** Its self-cleavage is 0.09.
